Screen size: about 5,400 compounds; about 190 (3.5%) showed an effect of 50% or more. This is one part of the list. Starred links: 1 amine or outer side, 2 acyl side, 3 side chain; linkers in the order of their positions; H or OH if unused. Positions of bridges follow the written chain, without caps; N, C: chain ends. Non-standard residues stand in square brackets, D forms with d. Residues, ends and D or L forms follow the SMILES beside them. *: point of attachment. X5 = NC1=N[C@@H](O)C[C@H]([C@H](N[*:1])C(=O)[*:2])N1; ΔAla(Z-3-ureido) = NC(=O)N/C=C(\N)C(=O)O; β3hOrn = NCCC[C@H](N)CC(=O)*; Dap = NC[C@H](N)C(=O)O
tested on: Vero-E6; test: primary screen, phospholipidosis by LipidTOX staining; higher = more effect of the substance; settings: 10 µM
Procedure, shortened: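 Drug-induced phospholipidosis detected with HCS LipidTOX Red reagent in Vero-E6 cells. Compounds tested at 10 μM, with amiodarone (10 μM) as positive control and DMSO (0.1 v/v %) as vehicle.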

Compound | result_ITMP [%]
O=C(NC1CCNCC1)c1n[nH]cc1NC(=O)c1c(Cl)cccc1Cl | 18.1
O=C(Nc1ccc(F)cc1)N1CCc2ccccc2C1c1ccc(C(F)(F)F)cc1 (stereo not shown) | -0.7
Cc1nccn1CCC(C(N)=O)(c1ccccc1)c1ccccc1 | -2.02
CC[C@H](Nc1ncnc2[nH]cnc12)c1nc2cccc(F)c2c(=O)n1-c1ccccc1 | 0
CNCCCOc1cc(F)c(-c2c(Cl)nc3ncnn3c2N[C@@H](C)C(F)(F)F)c(F)c1 | 37.5
O=C(O)c1ccc(S(=O)(=O)N(Cc2ccc(OC(F)(F)F)cc2)c2ncc(C(F)(F)F)cc2Cl)cc1 | -2.16
COc1ccc(NS(=O)(=O)c2ccc(N=Nc3ccc(O)c(C(=O)O)c3)cc2)nn1 | -1.47
Cc1ccc2c(c1)Cc1c(C(=O)NC3CCCCC3)nn(-c3ccc(Cl)cc3Cl)c1-2 | -2.64
CCN1CCN(c2cc(-c3ccc(F)cc3)c3c(n2)CCCCCC3)CC1 | 0.59
Cc1cc(CN)cc(C)c1NC(=O)c1ccc(-c2cc(Cl)ccc2Cl)o1 | 36.2
C[C@@H]1CN(Cc2ccc(F)cc2)[C@@H](C)CN1C(=O)c1cc2c(C(=O)C(=O)N(C)C)cn(C)c2cc1Cl | -5.07
O=c1cc[nH]c2cc(Cl)ccc12 | -1.07
CC[C@@H]1C(=O)N(C)c2cnc(Nc3ccc(C(=O)NC4CCN(C)CC4)cc3OC)nc2N1C1CCCC1 | 66.8
CC[C@@H]1C[C@H](N(Cc2cc(C(F)(F)F)cc(C(F)(F)F)c2)C(C)=O)c2cc(C(F)(F)F)ccc2N1C(=O)OC(C)C | -4.08
O=C1c2ccccc2C(Cc2ccncc2)(Cc2ccncc2)c2ccccc21 | -1.11
CC[N+]1(C)CCCC(OC(=O)C(O)(c2ccccc2)c2ccccc2)C1 (stereo not shown) | -13.2
CCS(=O)(=O)N1CCC([C@@H](C)n2c(C)c(C(=O)NCc3c(OC)cc(C)[nH]c3=O)c3ccccc32)CC1 | 0.19
Fc1ccc(CNc2ncnc3ccc(F)cc23)cc1 | 2.6
CCn1c(=O)n(C2=C(CO)CN(CC3CCCCCCC3)CC2)c2ccccc21 | 3.61
CC(C)(C)NCC(O)c1ccc(O)c(CO)c1 (stereo not shown) | -2.76
Cc1sc2c(c1C)C(c1ccc(Cl)cc1)=N[C@@H](CC(=O)Nc1ccc(OCCOCCOCCOCCNc3cccc4c3C(=O)N(C3CCC(=O)NC3=O)C4=O)cc1)c1nnc(C)n1-2 (stereo partly shown) | 1.89
c1ccc([C@@H]2C[C@H]2NC2CCNCC2)cc1 | 27.9

Compound | result_ITMP [%]
Fc1ccc(-c2cncc(CN3CCN(c4cccc5c4OCCO5)CC3)c2)cc1 | 1.81
Cc1nnc2n1-c1sc(CCC(=O)N3CCOCC3)cc1C(c1ccccc1Cl)=NC2 | -6.23
O=C(O)c1ccccc1Nc1cccc(OCc2ccc3ccccc3n2)c1 | -1.5
CC(=O)NCCc1c(Cc2ccccc2)[nH]c2ccccc12 | 0.24
CN(C)CC/C=C1/c2ccccc2COc2ccccc21 | 41.1
CC(C)N[C@@H]1CCn2c(=O)[nH]c3cccc(c32)[C@H]1O | 3.01
CCC(C)C(CC)C(N)=O (stereo not shown) | 4.28
CC(C)(C)NC(=O)[C@@H]1CN(Cc2cccnc2)CCN1C[C@@H](O)C[C@@H](Cc1ccccc1)C(=O)N[C@H]1c2ccccc2C[C@H]1O | -2.01
COc1ccc2cc1Oc1ccc(cc1)C[C@H]1c3c(cc4c(c3Oc3cc5c(cc3OC)CCN(C)[C@@H]5C2)OCO4)CCN1C | 57
NC1=N[C@@]2(c3cc(NC(=O)c4ccc(F)cn4)ccc3F)COC[C@H]2CS1 | 3.41
Nc1ccc(F)cc1NC(=O)c1ccc(CNC(=O)/C=C/c2cccnc2)cc1 | 0.35
Cn1c(=O)c2[nH]c(Br)nc2n(C)c1=O | 3.28
COc1ccc(COc2cc3oc(=O)c4cc(C(C)O)ccc4c3cc2OC)cc1 (stereo not shown) | 3.4
C=C(C)[C@@H]1CCC(C)=C[C@H]1c1c(OC)cc(C)cc1OC | -4.61
COC1=C(OC)C(=O)C(C/C=C(\C)CC/C=C(\C)CC/C=C(\C)CC/C=C(\C)CC/C=C(\C)CC/C=C(\C)CC/C=C(\C)CC/C=C(\C)CC/C=C(\C)CCC=C(C)C)=C(C)C1=O | 3.01
COC(=O)Nc1nc2cc(C(=O)c3ccc(F)cc3)ccc2[nH]1 | -4.81
Cc1cc(/C=C2\SC(=O)N(c3ccccc3)C2=O)c(C)n1-c1cccnc1 | -6.01
O=C(O)c1cc(O)c2ccccc2n1 | 3.47
O=C(O)c1ccc(N2C(=O)/C(=C/c3ccc(-c4ccc([N+](=O)[O-])cc4)o3)C=C2c2ccccc2)cc1 | 0.54
OC[C@H]1O[C@@H](Oc2cc3c(O)cc(O)cc3[o+]c2-c2ccc(O)c(O)c2)[C@H](O)[C@@H](O)[C@@H]1O | -2.67
CCOC(=O)c1ccc(N2NC(=O)/C(=C/c3ccc([N+](=O)[O-])o3)C2=O)cc1 | 0.97
O=C(Nc1ccc(C(F)(F)F)cn1)N1CCN(c2ncccc2C(F)(F)F)CC1 | -3.87

Compound | result_ITMP [%]
CCOC(=O)c1ccc(O)cc1 | 4.07
CC(=O)O[C@H]1Cc2ccccc2N(C(N)=O)c2ccccc21 | -0.57
CCOc1ccc(Cc2cc([C@@H]3O[C@H](CO)[C@@H](O)[C@H](O)[C@H]3O)ccc2Cl)cc1 | -8.44
CN(C)CCN1C(=O)c2cccc3cc(N)cc(c23)C1=O | 19.8
CCC(C)CNCC(=O)N1CCc2sccc2C1COc1cccc(C)c1 (stereo not shown) | 57.8
CCNC(C)CN1CCc2c(c(=O)oc3ccccc23)C1 (stereo not shown) | -0.92
O=C1CC[C@@]2(O)[C@H]3Cc4ccc(O)c5c4C2(CCN3CC2CC2)[C@H]1O5 | -5.93
CCn1nc(C)c2c1C(c1ccccc1)=NCC(=O)N2 | -0.8
COc1cccc2c1C(=O)c1c(O)c3c(c(O)c1C2=O)C[C@@](O)(/C(CO)=N/NC(=O)CCCCCN1C(=O)C=CC1=O)C[C@@H]3O[C@H]1C[C@H](N)[C@H](O)[C@H](C)O1 | 0.08
COc1cc2c(NC3CCN(C)CC3)nc(N3CCCN(C)CC3)nc2cc1OCCOCCN(C)C | 0.39
O=[N+]([O-])c1cc(Cl)ccc1S(=O)(=O)N1CCN(Cc2ccccc2)CC1 | -1.83
CCSc1ccc2c(c1)N(CCCN1CCN(C)CC1)c1ccccc1S2 | 59.1
CCCCc1nn(-c2ccccc2C(F)(F)F)c(=O)n1Cc1ccc(-c2ccccc2S(=O)(=O)NC(=O)c2sccc2C)cc1 | -5.04
Cc1c(O)cccc1C(=O)N[C@@H](CSc1ccccc1)[C@H](O)CN1C[C@H]2CCCC[C@H]2C[C@H]1C(=O)NC(C)(C)C | 5.12
CC(C)CCC[C@@H](C)[C@H]1CC[C@H]2[C@@H]3CC=C4C[C@@H](O)CC[C@]4(C)[C@H]3CC[C@]12C | -3.63
CC(C)NCCCn1c(Sc2cc3c(cc2I)OCO3)nc2c(N)ncnc21 | -5.56
O=C(CN1CCN(Cc2ccc3c(c2)OCO3)CC1)N1c2ccccc2Sc2ccccc21 | 15.4
CN(C)CCC(c1ccccc1)c1ccccn1 (stereo not shown) | -3.41
Cc1cccc(Nc2nc(-c3ccncc3)cs2)c1 | -9.7
NC[C@H]1CC[C@H](C(=O)O)CC1 | -3.43
C=CCc1ccccc1OCC(O)CNC(C)C (stereo not shown) | 12.1
Oc1c(Cl)cc(Cl)cc1Sc1cc(Cl)cc(Cl)c1O | 0.89

Compound | result_ITMP [%]
O=C(CBr)N1CC([N+](=O)[O-])([N+](=O)[O-])C1 | 0.64
CCCCOc1ccc(CC(=O)NO)cc1 | -3.14
CN(C)c1ccc(/C=C2\C(=O)Nc3ccccc32)cc1 | -0.66
Cc1ccc(O)c([C@H](CCN(C(C)C)C(C)C)c2ccccc2)c1 | 37.1
CCCCCCCCCCCCCCCCO | -6.99
CO/N=C(\C(=O)N[C@@H]1C(=O)N2C(C(=O)O)=C(CSc3nc(C)c(CC(=O)O)s3)CS[C@H]12)c1csc(N)n1 | -5.71
CCN1/C(=C/C(C)=O)Sc2ccc(OC)cc21 | -4.89
COc1ccc2c(NC(=O)Nc3cccc(C(F)(F)F)n3)ccnc2c1 | 4.8
COc1ccc2nc3cc(Cl)ccc3c(Nc3cc(CN4CCCC4)c(O)c(CN4CCCC4)c3)c2n1 | -2.34
CC(=O)c1ccc2c(c1)N(CCCN1CCN(CCO)CC1)c1ccccc1S2 | 74.4
Cc1c(CC(C)(C)C(=O)O)n(Cc2ccc(Cl)cc2)c2ccc(F)cc12 | 3.69
CS(=O)(=O)c1ccc(Cn2c3c(c4cc(F)cc(F)c42)CCCC3CC(=O)O)cc1 (stereo not shown) | -2.27
Cc1c(Cl)cccc1S(=O)(=O)Nc1nc(NCCc2ccccc2)nc2c1CN(Cc1ccccc1)CC2 | -0.11
COc1cc2c(NC3CCN(C4CCCCC4)CC3)nc(N3CCCN(C(C)C)CC3)nc2cc1OCCCN1CCCCC1 | -1.55
NC1C[C@H]1c1ccccc1 (stereo partly shown) | -1.26
C[C@H](CCC(=O)O)[C@H]1CC[C@H]2[C@@H]3CC[C@@H]4C[C@H](O)CC[C@]4(C)[C@H]3CC[C@]12C | -0.58
C[C@]12CC[C@H](O)C[C@H]1CC[C@@H]1[C@@H]2CC[C@]2(C)[C@@H](C3=CC(=O)OC3)CC[C@]12O | -8.72
CC(C)c1c2cc(-c3ccnc(N[C@H]4CC[C@H](NC5CCOCC5)CC4)n3)ccc2nn1C | -12.3
NCCC[C@H](N)CC(=O)N[C@H]1CNC(=O)[C@H]([C@H]2C[C@H](O)N=C(N)N2)NC(=O)/C(=C/NC(N)=O)NC(=O)[C@H](CO)NC(=O)[C@H](CO)NC1=O (β3hOrn-[Dap]SS[ΔAla(Z-3-ureido)][X5]; lactam 1-C) | -3.72
